Results as given in PubChem BioAssay AID894 (National Center for Advancing Translational Sciences (NCATS), 2007).
Where “and” joins values, the source holds several entries; their conditions need not be identical. Equal values may be shown once. The campaign covered roughly 150,000 compounds. About 6,500 (4.3%) were called active. This list was built around the results that the source calls inconclusive (neither active nor inactive); the mix of calls is not that of the screen. The call rests on the fitted dose curve; in most records, active means well fitted inhibition curve with a large enough effect (not every such curve was filed as active); inconclusive means small, poorly fitted or top-dose-only effect, or another doubt; inactive means no such curve, though single readings can be large or run the other way. Where the call is inconclusive, the potency comes from a doubtful curve fit.

The compounds below were run against 15-hydroxyprostaglandin dehydrogenase [NAD(+)] (Homo sapiens) (UniProt P15428) (assay: qHTS Assay for Inhibitors of HPGD (15-Hydroxyprostaglandin Dehydrogenase)). Conditions: purified HPGD, NADH fluorescence kinetic, PGE2 substrate; activity change, negative = inhibition: hits give low values.
Outline: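 20 nM HPGD preincubated 15 min at room temperature with compound in 50 mM Tris-HCl pH 8, 0.01% Tween 20. Started with 1 mM NAD+ and 30 uM prostaglandin E2; NADH fluorescence (360/450 nm) read 5 times over 30-s intervals, last minus first.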
On the % scale 0 is the no-effect control and ±100 the full control effect; potency means the concentration at half of the fitted maximal effect; tags describe the fitted curve by direction and shape.

UniProt P15428, sequence (P15428 whole entry, looked up): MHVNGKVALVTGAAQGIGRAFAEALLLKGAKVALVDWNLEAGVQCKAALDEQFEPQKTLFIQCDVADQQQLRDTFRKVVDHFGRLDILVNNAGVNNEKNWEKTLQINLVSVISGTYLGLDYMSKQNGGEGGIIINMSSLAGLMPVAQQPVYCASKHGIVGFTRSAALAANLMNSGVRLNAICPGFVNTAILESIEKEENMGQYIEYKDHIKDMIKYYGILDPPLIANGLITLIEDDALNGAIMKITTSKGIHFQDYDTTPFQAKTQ

SMILES	Potency	activity change, negative = inhibition
O=C(OCn1ncc(Cl)c(Cl)c1=O)c1cccc(C(F)(F)F)c1	active: 17.8 µM	
Cc1ccc(-c2nc3ncccn3c2Nc2ccc3c(c2)OCO3)o1		inactive: -20.2%
Cc1n[nH]c(=S)n1/N=C/c1ccccc1	inconclusive: 28.2 µM [inhibitor, single point]	
CCCCNc1nc(C)nc2c1nc(-c1ccccc1)n2CCCN(C)C	inconclusive: 31.6 µM [inhibitor, partial curve]	
CC(=O)Nc1ccc2nc(-c3cccnc3)[nH]c2c1	inconclusive: 35.5 µM [inhibitor, partial curve]	
Cc1cccc(NC(=O)N[C@@H](C)C(=O)O)c1		inactive: -11.4%
CCOc1ccc(-c2nc3n(c(=O)c2C#N)CCCS3)cc1	inconclusive: 20 µM [inhibitor, partial curve]	
O=C1C(O)=C(O)C(=O)C(O)=C1O		inactive: -6.18% and inactive: -16.7%
CN1CCN(c2ncc3nc(-c4ccccc4)c(=O)n(Cc4ccc(F)cc4)c3n2)CC1		inactive: -14.2%
COc1ccc(OC)c(/C=c2\sc3nc(-c4cccs4)nn3c2=O)c1		inactive: -21.8%
CCN1CCCC1Cn1c(-c2ccccc2)nc2c(NCc3ccccc3)nc(C)nc21 (stereo unspecified)	inconclusive: 28.2 µM [inhibitor, partial curve]	
c1ccc2c(Nc3nc(N4CCOCC4)c4ccccc4n3)cccc2c1	inconclusive: 35.5 µM [inhibitor, single point]	
COc1cc(/C=N/NC(=O)c2ccc(-c3ccccc3)cc2)cc(OC)c1OC	inconclusive: 25.1 µM [inhibitor, partial curve]	
CCOC(=O)c1ccc(NC(=O)COC)cc1		inactive: -12.9%
COc1cc(-c2ncc3ccccn23)cc(OC)c1OC	inconclusive: 14.1 µM [inhibitor, partial curve]	
COCCNC(=O)c1c(N)n(/N=C/c2cccs2)c2nc3ccccc3nc12	inconclusive: 28.2 µM [inhibitor, partial curve]	
CC(=O)Oc1c(C)cc(Cl)cc1C(=O)Nc1ccc([N+](=O)[O-])cc1Cl		inactive: -3.26%
C=CC(C)N1C(=O)S/C(=C\c2ccc(N3CCOCC3)cc2C)C1=O (stereo unspecified)		inactive: -15.2%
O=c1c2c(-c3cccs3)csc2ncn1-c1ccc(Br)cc1	inconclusive: 28.2 µM [inhibitor, partial curve]	
O=C(CSc1n[nH]c(-c2cccnc2)n1)Nc1ccccc1	active: 10 µM	
COc1ccc(Oc2ncc3nc(-c4cccs4)c(=O)n(C)c3n2)cc1		inactive: -17.7%
Cc1ccc(CNC(=O)c2ccccc2N)cc1	inconclusive: 25.1 µM [inhibitor, partial curve]	
O=S(=O)(c1ccc(NC(=S)NCCc2ccccc2)cc1)N1CCOCC1		inactive: -5.39%
COC(=O)CC1c2ccccc2C=C(/C=C/c2ccc3c(c2)OCO3)N1C(=O)OC (stereo unspecified)	inconclusive: 7.08 µM [inhibitor, single point]	

SMILES	Potency	activity change, negative = inhibition
Cc1ccccc1C(=O)NCCCc1ccccc1	active: 14.1 µM	
CCSC(N)=Nc1ccc(C(F)(F)F)cc1		inactive: -26.4%
CCOC(=O)C1=C(c2ccccc2)c2ccc(OC)cc2N(S(=O)(=O)C(F)(F)F)C1C(=O)OCC (stereo unspecified)	inconclusive: 31.6 µM [inhibitor, partial curve]	
Cc1ccc(-c2ccc(CCC(=O)O)n2CC2CCCO2)cc1 (stereo unspecified)	inconclusive: 25.1 µM [inhibitor, partial curve]	
Cc1ccc(C(=O)C2=C(O)C(=O)N(c3ncccn3)C2c2ccc(Cl)cc2)o1 (stereo unspecified)		inactive: -28%
CC(C)CCCC(C)C1CCC2C3CC=C4CC(O)CCC4(C)C3CCC12C (stereo unspecified)		inactive: -0.0019%
COc1cccc(/C=C2\N=C(SC)SC2=O)c1OC	active: 25.1 µM	
COCCNC(=O)C1(C)Oc2ccccc2NC1=O (stereo unspecified)		inactive: -0.413%
O=C(OCC(=O)N1CCN(C(=O)c2ccco2)CC1)c1ccccc1C(=O)c1ccccc1		inactive: -1.34%
CN=C(c1ccco1)n1c(=S)nc(-c2ccco2)n(C)c1=S	inconclusive: 31.6 µM [inhibitor, single point]	
CCN(CC(=O)NC1CCS(=O)(=O)C1)S(=O)(=O)c1ccc(C)c(C)c1 (stereo unspecified)		inactive: -8.43%
Cc1nc2ncccn2c1-c1csc(NCc2ccco2)n1	inconclusive: 25.1 µM [inhibitor, partial curve]	
COc1ccc(C(C)(C)C)cc1NC(=O)CNc1cccc2ccccc12	inconclusive: 31.6 µM [inhibitor, partial curve]	
CCOC(=O)CSc1ccc2nnc(-c3cccs3)n2n1	inconclusive: 28.2 µM [inhibitor, partial curve]	
COc1ccc(-c2cc3ccc(OCc4nn[nH]n4)cc3oc2=O)cc1	inconclusive: 31.6 µM [inhibitor, partial curve]	
CC(C)(C)C(=O)NCC12C=CC(O1)C1C(=O)N(c3ccccc3)C(=O)C12 (stereo unspecified)	active: 20 µM	
O=C1NC(=S)/C(=C\c2ccc(-c3ccccc3Cl)o2)S1	active: 15.8 µM	
Fc1ccccc1CSc1nnc(-c2ccccc2)o1	active: 10 µM	
CC[C@@H]1Cc2cc(O)ccc2C2=C1c1ccc(O)cc1C[C@H]2CC	inconclusive: 28.2 µM [inhibitor, partial curve] and inconclusive: 31.6 µM [inhibitor, partial curve]	
Cc1ccccc1-c1ccc(=O)n(CC(=O)Nc2ccc(C(=O)N3CCCC3)cc2)n1	active: 14.1 µM	
Cc1cc(C)c2cc(CN(Cc3nnnn3Cc3ccc(F)cc3)C3CCCC3)c(=O)[nH]c2c1	inconclusive: 35.5 µM [inhibitor, partial curve]	
CCOC(=O)c1ccccc1NC1c2ccccc2C(=O)N1c1cc(C)ccn1 (stereo unspecified)	inconclusive: 31.6 µM [inhibitor, single point]	
O=C(Nc1cccc(F)c1)N1CC=C(n2c(=O)[nH]c3ccccc32)CC1	inconclusive: 14.1 µM [inhibitor, partial curve]	
C=CCOC(=O)c1sc(NC(=O)c2ccco2)nc1C	inconclusive: 12.6 µM [inhibitor, partial curve]	

SMILES	Potency	activity change, negative = inhibition
CCOc1ccc(CN2C(=O)c3ccccc3C2=O)cc1C(=O)Nc1nnc(SCC)s1	inconclusive: 1.41 µM [inhibitor, full curve, poor fit]	
Nc1ncnc2c1ncn2[C@H]1CC[C@@H](CO)O1		inactive: -5.48% and inactive: -8.22%
COC(=O)c1cn(NC(=O)/C=C/c2ccc(OC)c(OC)c2)c(=O)c2ccccc12	inconclusive: 25.1 µM [inhibitor, partial curve]	
COc1ccc(-c2oc3ncnc(N)c3c2-c2ccccc2)cc1	inconclusive: 25.1 µM [inhibitor, partial curve]	
COc1ccc(-c2cc(-c3ccccc3)c(C#N)c(S(C)=O)n2)cc1 (stereo unspecified)	inconclusive: 28.2 µM [inhibitor, partial curve]	
O=C(COC(=O)c1ccccc1NCc1ccco1)Nc1ccc2c(c1)OCO2	inconclusive: 28.2 µM [inhibitor, partial curve]	
C=C(C)CSc1nc2ccccc2[nH]1	inconclusive: 20 µM [inhibitor, partial curve]	
COc1cc(C(=O)Nc2ccc(-c3nc4cc(C)ccc4o3)c(O)c2)cc(OC)c1OC	inconclusive: 31.6 µM [inhibitor, partial curve]	
Cc1cc(C)n2cc(CSc3ncccc3C(=O)O)nc2n1	inconclusive: 28.2 µM [inhibitor, partial curve]	
NS(=O)(=O)c1ccc(CNC(=O)/C=C/c2ccc(Cl)c(Cl)c2)cc1		inactive: -19.9%
COc1ccc(OCCNc2cc(N3CCOCC3)ccc2[N+](=O)[O-])cc1	inconclusive: 39.8 µM [inhibitor, single point]	
Clc1cccc(-c2cc3nc4c(c(N5CCNCC5)n3n2)CCCC4)c1	inconclusive: 7.94 µM [inhibitor, full curve, poor fit]	
C=CCn1c(SCC(=O)c2cccs2)nnc1-c1cccc(OC)c1	active: 20 µM	
O=[N+]([O-])c1cccc(/C=N\Nc2ccc3ccccc3n2)c1O		inactive: -11.2%
COc1ccc(-c2cc(=O)c3ccccc3[nH]2)cc1	inconclusive: 10 µM [inhibitor, partial curve] and inconclusive: 35.5 µM [inhibitor, partial curve]	
COc1cccc(-c2nn3c(-c4ccco4)nnc3s2)c1	inconclusive: 14.1 µM [inhibitor, partial curve]	
Cc1cc2cc(C#N)c(N3CCN(S(C)(=O)=O)CC3)nc2cc1C	inconclusive: 1 µM [inhibitor, full curve]	
CCOC(=O)COc1cccc2c(=O)n(CC(=O)N3CCc4ccccc43)ccc12		inactive: -11.6%
O=C(NCc1ccco1)c1sc2cccc(F)c2c1Cl	active: 3.98 µM	
Cc1cc(=O)n2c(nc3ccccc32)[nH]1	inconclusive: 31.6 µM [inhibitor, partial curve]	
CN(Cc1ccccc1)c1oc(COc2ccccc2F)nc1C#N		inactive: -22.5%
COc1ccc(C2CC(=O)c3c(C)nc(N4CCN(c5ccccc5)CC4)nc3C2)cc1 (stereo unspecified)	inconclusive: 31.6 µM [inhibitor, partial curve]	
COc1ccc(-c2nc(CCNC(=O)c3ccc(Br)o3)cs2)cc1	inconclusive: 28.2 µM [inhibitor, partial curve]	
